Data from the supplement of paper PMC3334620.
Over roughly 33,000 sequences, “E-score (-0.5 to 0.5)” has its median near -0.041; the highest 2% begin near 0.37. The list shows a part of the results.

target: T1, Ecm22 (UniProt Q05958); experiment: PBM E-score (8-mer binding enrichment) (E-score (-0.5 to 0.5)); higher = stronger / more preferred TF binding; most listed sequences are background and not binding sites; conditions: protein concentration: 200 nM; construct: GST-full length
T1 sequence: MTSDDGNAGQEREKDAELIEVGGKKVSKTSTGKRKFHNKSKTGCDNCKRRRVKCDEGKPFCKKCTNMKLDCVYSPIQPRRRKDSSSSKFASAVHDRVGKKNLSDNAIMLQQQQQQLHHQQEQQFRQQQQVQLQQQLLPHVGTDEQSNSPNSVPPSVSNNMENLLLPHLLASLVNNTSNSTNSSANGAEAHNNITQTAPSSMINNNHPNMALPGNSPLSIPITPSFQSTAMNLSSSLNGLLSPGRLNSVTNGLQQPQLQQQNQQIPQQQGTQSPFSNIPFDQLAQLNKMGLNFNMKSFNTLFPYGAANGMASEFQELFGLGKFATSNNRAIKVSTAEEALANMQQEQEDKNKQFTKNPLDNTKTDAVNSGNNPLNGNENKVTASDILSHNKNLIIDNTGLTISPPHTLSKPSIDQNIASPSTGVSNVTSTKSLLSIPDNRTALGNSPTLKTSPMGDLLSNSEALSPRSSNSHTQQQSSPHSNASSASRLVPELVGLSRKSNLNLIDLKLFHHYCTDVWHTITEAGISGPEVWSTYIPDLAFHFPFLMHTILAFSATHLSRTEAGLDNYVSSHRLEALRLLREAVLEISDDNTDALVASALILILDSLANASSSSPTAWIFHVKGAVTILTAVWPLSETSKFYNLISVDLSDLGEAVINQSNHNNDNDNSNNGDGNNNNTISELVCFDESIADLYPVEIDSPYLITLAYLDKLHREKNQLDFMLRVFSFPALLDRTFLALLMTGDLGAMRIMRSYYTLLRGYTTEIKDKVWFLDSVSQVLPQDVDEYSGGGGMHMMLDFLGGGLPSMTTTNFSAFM
Summary of the method: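 Each ungapped eight-base word and its reverse complement, pooled, received an E-score from the Universal PBM Analysis Suite. Underlying scans, normalised with masliner, recorded fluorescent anti-GST bound to GST-tagged yeast transcription factors. These were applied at about 100-200 nM to universal all-10-mer Agilent arrays double-stranded by primer extension.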

Row | Sequence | PBM E-score
1 | ACTCGTCC | -0.139
2 | AACGGTAG | 0.188
3 | GCACTGGC | -0.187
4 | ATGCTTAC | -0.13
5 | CTTCGAAG | -0.0135
6 | GATCGTGC | 0.0469
7 | CACCAGAC | 0.0559
8 | GAAAAGCA | -0.0156
9 | CCCCTACA | -0.337
10 | ACGCAAAA | 0.156
11 | AGTTTCAT | 0.138
12 | GCAGCATA | -0.167
13 | CCACCGCA | 0.0119
14 | TACATTCA | -0.185
15 | TACAGACA | 0.145
16 | CCCGCGCA | 0.0386
17 | TGACGACA | 0.123
18 | CCTTCCGA | -0.0653
19 | GGTTTTAC | 0.109
20 | ATCTTGTG | -0.218
21 | AAGGAAGT | -0.174
22 | CATAACCG | 0.132
23 | CCCCGGCC | -0.306
24 | ATCCTCAG | -0.0968
25 | CGCCTCGA | 0.0979

Row | Sequence | PBM E-score
26 | AACAAAGC | 0.0372
27 | GGATCTTA | 0.158
28 | ATCATAAC | 0.00471
29 | CTAGAAGC | -0.168
30 | CCAGTAGA | -0.171
31 | AGCATTCG | 0.061
32 | ACCTTAGA | -0.155
33 | AGAAGCTG | -0.0646
34 | ACAGATTA | -0.0874
35 | AGGATGCC | -0.175
36 | AGTAGAAC | -0.0192
37 | CTATTAAA | -0.0427
38 | AATTAGTG | -0.0596
39 | CCTGGCAC | -0.217
40 | GAATCCCA | -0.0546
41 | TCGTTCAA | 0.448
42 | AGTATAAC | 0.0917
43 | CGGAGTCA | -0.0287
44 | CAGGGCCG | -0.0559
45 | CAACCCTC | -0.05
46 | ATTGCTGC | -0.0302
47 | CCCGGCTA | -0.11
48 | GGTTAACA | -0.0609
49 | CGCGCGGC | 0.225
50 | CAAAAAGC | -0.0578

Row | Sequence | PBM E-score
51 | ATCTTAAC | 0.138
52 | AGGTTTAG | -0.0456
53 | AACAATTC | -0.301
54 | ATTGTCCA | -0.096
55 | TATCCCGA | 0.0603
56 | CAGGTCTC | -0.249
57 | GACTGATA | -0.209
58 | CGGTACAC | 0.0064
59 | ACTAACGC | 0.0181
60 | AACAAGAC | -0.0162
61 | AGCTCCGC | -0.0692
62 | CTGATGTC | -0.0878
63 | ACTGAACC | 0.0101
64 | AACGGCGA | 0.381
65 | GGGCATCA | -0.311
66 | TAGTTCCA | -0.0504
67 | CACTGGGA | -0.188
68 | AATATCTG | -0.164
69 | AGGGGGGA | -0.0969
70 | AATGGTGC | -0.0155
71 | ATTCTTCA | 0.0132
72 | ATTTAACG | 0.361
73 | AATGTTGG | -0.102
74 | GAAACCGC | 0.0271
75 | AAGGGCCT | -0.278

Row | Sequence | PBM E-score
76 | CGTAGCCC | 0.25
77 | GCACTACA | -0.0693
78 | ATCGATTA | 0.16
79 | CCAATGCC | -0.246
80 | ACGTATCT | 0.088
81 | ACTCCTAG | -0.304
82 | ATGACACC | -0.179
83 | TCGGAACA | 0.215
84 | GGGGCTGA | -0.0923
85 | GAGCGTCC | 0.0848
86 | AATGGACG | -0.0367
87 | AGAGTCGC | 0.159
88 | GAAACTCC | -0.164
89 | CTTTTATC | -0.0345
90 | CTTGTCCC | -0.0987
91 | ATTTCGAA | 0.111
92 | GGTGAAAC | 0.132
93 | ACATGACC | -0.035
94 | GTACGAGA | 0.482
95 | TCAGATCA | -0.33
96 | AGTAAGAC | -0.0383
97 | ACGCAGAG | 0.0359
98 | GGTTAAGA | -0.0289
99 | CAGGCGAC | -0.236
100 | AGTGTGGG | -0.217

Row | Sequence | PBM E-score
101 | AATGCTAA | -0.0939
102 | AGCAAAGG | -0.0124
103 | GGCGATTA | 0.0187
104 | GGCAGATA | 0.00792
105 | CCCACCGA | 0.027
106 | CTATCTGA | -0.0516
107 | GCCGTCGC | 0.229
108 | ACGCTTTA | 0.142
109 | TAATCTGA | -0.217
110 | CAGGTCAC | -0.351
111 | CGATTTCC | 0.15
112 | ATGTGCTA | -0.065
113 | AACTTGAG | -0.169
114 | AGTAACTC | 0.0824
115 | GTCCCACA | -0.158
116 | CATCCACA | -0.215
117 | CGACCATC | 0.212
118 | ATCACGAT | 0.0567
119 | GTAGTACA | 0.0286
120 | GGACAGGA | -0.111
121 | ACGCTAAG | -0.0825
122 | GTGTGAAA | -0.07
123 | ATCGAAGG | -0.0211
124 | GGTATGAA | -0.0181
125 | GGGTTGCA | -0.189

Row | Sequence | PBM E-score
126 | AAGATTGC | -0.141
127 | CTGCGTGA | -0.162
128 | CGGTATTC | 0.0418
129 | AAAGTTAT | 0.0679
130 | CCAGATAG | -0.186
131 | ATGGAGAC | 0.0828
132 | ATTATATC | 0.0802
133 | GAGCCCAA | -0.109
134 | CTCGAGTC | -0.141
135 | CATGCACC | -0.139
136 | GGTTAGAA | -0.0363
137 | TACTAGAA | -0.0752
138 | ATCTCGTA | 0.466
139 | AACGGAGT | 0.197
140 | ACGTAAGC | 0.0655
141 | GCTAGCTA | -0.106
142 | CGAGGTGC | 0.238
143 | GTTGCGTA | 0.222
144 | CGAAATAC | 0.251
145 | AAGCTATA | -0.0214
146 | GGCTCTAA | -0.0806
147 | AGCAAATA | -0.0689
148 | CAAGGGTC | -0.271
149 | CCCGCTTA | 0.2
150 | GCAGCTCC | -0.129

Row | Sequence | PBM E-score
151 | AGGTCAAG | -0.346
152 | CGTAACGC | 0.329
153 | CAGCCATG | -0.0775
154 | CGTGCATA | -0.121
155 | TTAGATAA | -0.0703
156 | TCGGACAA | 0.205
157 | ATGGTCCA | -0.203
158 | GACATCGC | 0.0836
159 | ATAAGGTG | -0.0576
160 | CCCCATCC | 0.0357
161 | CACAAAAC | 0.0438
162 | GAATTATC | 0.143
163 | CTCGTATC | 0.478
164 | AATCACGA | 0.137
165 | CAACAGTC | -0.32
166 | CGGTTTCC | 0.0462
167 | CCCTAGGA | -0.223
168 | AGGTACAT | 0.0134
169 | TCTGTCAA | -0.101
170 | ATGTCCGC | 0.0595
171 | CTGTCTGA | -0.206
172 | CAATAACA | -0.16
